This note sets out measurements from article PMC4076583 (The Journal of Experimental Medicine, 2014).

In general, Kd refers to a measure of binding affinity in units of concentration.

The test deals with recombinant human Galectin-9 (human, UniProt O00182 1-355). Kind of test: SPR. For orientation: Surface plasmon resonance follows binding to a sensor surface in real time, without labels.

B1: human 4-1BB.Fc, full-length extracellular 4-1BB (CRD1-4, […]) fused to human IgG1 Fc (Fc fusion)
chain: not shown
On to B1, for which the Kd is ~85 nM.
